We go through 47 molecules from PubChem BioAssay AID1508642 (National Center for Advancing Translational Sciences (NCATS), 2021).

The structures appear in SMILES notation. The whole screen tested about 43,000 compounds, of which about 200 (0.47%) were called active. Roughly 12% stayed inconclusive and do not appear here. The call rests on the fitted dose curve; in most records, active means well fitted cell-killing curve with a large enough effect; inconclusive means small, poorly fitted or top-dose-only effect, or effect the other way; inactive means flat fitted curve, though single readings scatter. The list shows a part of the results.
On the % scale 0 is the no-effect control and ±100 the full control effect.

This experiment in a line: Cell viability qHTS assay in S16 Pmp22-F2sN cells. Further: nearly all actives have a fitted effect of over 65% in size. To be noted: S16 Pmp22-F2sN Schwann cells (luciferase reporters placed in the Pmp22 gene) viability, CellTiter-Glo, 24 h; series mostly up to 57.5 µM; activity change, negative = cytotoxicity: at the top concentration. An outline of the steps:
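Luminescence from CellTiter-Glo, read by CCD camera after a 15 min room-temperature incubation, served as the viability signal. Reporter Schwann cells (S16 Pmp22-F2sN) had been treated with pin-transferred compounds for 24 h at 37C.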
Turning to `Cc1ccc(C(=O)Nc2ccc(S(=O)(=O)N(Cc3ccccc3)c3ccccc3)cc2)cc1`, the “activity change, negative = cytotoxicity” value was inactive: 5%.

Turning to `COc1ccc(NC(=O)C2=CC(c3ccc4c(c3)OCO4)=NS(=O)(=O)N2C)cc1OC`, the “activity change, negative = cytotoxicity” value was inactive: 1.79%.

For `O=S(=O)(c1ccc(Cl)cc1)c1nc(-c2ccccc2F)oc1NCc1ccccc1`, the “activity change, negative = cytotoxicity” value was inactive: -6.3%.

As for `O=C(CSCn1nnc2c(=O)[nH]c(Cc3ccc(F)cc3)nc21)Nc1ccccc1`, the “activity change, negative = cytotoxicity” value is inactive: -1.67%.

In the case of `Cc1c(C(=O)NCc2ccc(Cl)cc2)sc2nc3n(c(=O)c12)CCC3`, the “activity change, negative = cytotoxicity” value is inactive: 0.729%.

Turning to `COc1ccc(-c2nc3n(n2)C(c2ccccc2)C(C(=O)Nc2cccnc2)=C(C)N3)cc1` (configuration not stated), the “activity change, negative = cytotoxicity” value was inactive: 0.479%.

Regarding `COCCNC(=O)CN1C(=O)CCn2nc(-c3cn(C)c4ccccc34)cc21`, the “activity change, negative = cytotoxicity” value is inactive: 5.11%.

As for `CCOC(=O)N1CCN(CCC(=O)Nc2cccc(F)c2)CC1`, the “activity change, negative = cytotoxicity” value was inactive: 8.08%.

Consider `COc1ccc2c(Sc3ccc(C)cc3)c(C(=O)NC(C)c3ccccc3)[nH]c2c1` (configuration not stated), for which the “activity change, negative = cytotoxicity” value was inactive: 0.235%.

As for `COc1cc([C@@H]2Nc3c(F)cccc3[C@@H]3C=CC[C@@H]32)cc(Br)c1OC`, the “activity change, negative = cytotoxicity” value was inactive: -0.514%.

`Cc1c(C(=O)O)oc2c1-c1nn(Cc3ccccc3Cl)cc1CC2`: the “activity change, negative = cytotoxicity” value was inactive: -8.5%.

With `Cc1c(NC(=O)Cc2ccccc2)cccc1-c1nc2cccnc2s1`, the “activity change, negative = cytotoxicity” value is inactive: -1.07%.

For `CCOC(=O)c1c(C)[nH]c(C)c1S(=O)(=O)N1CCC(C(=O)NCc2ccc(OC)cc2)CC1`, the “activity change, negative = cytotoxicity” value is inactive: 3.04%.

Turning to `CCOc1ccc(NC(=O)c2cc3nc(-c4ccc(OC)cc4)cc(C(F)(F)F)n3n2)cc1`, the “activity change, negative = cytotoxicity” value is inactive: -1.5%.

Regarding `Cn1nc(-c2ccccc2F)c2cc(C(=O)N3CCN(c4ccccc4F)CC3)sc21`, the “activity change, negative = cytotoxicity” value is inactive: -7.68%.

Take `COC(=O)c1ccc2c(=O)n(CCCCCC(=O)N3CCN(c4cccc(C)c4C)CC3)c(=O)[nH]c2c1`: the “activity change, negative = cytotoxicity” value is inactive: -8.89%.

`COCCCNc1nc2c(-c3cccc(Br)c3)nnn2c2ccccc12`: the “activity change, negative = cytotoxicity” value was inactive: 20.3%.

`CCCCOc1ccc(C(=O)Nc2ccc3c(c2)N(C(C)=O)CCC3)cc1`: the “activity change, negative = cytotoxicity” value was inactive: 7.59%.

With `Cc1ccc(S(=O)(=O)N2CCCc3cc(NC(=O)c4cccc(Cl)c4)ccc32)cc1`, the “activity change, negative = cytotoxicity” value is inactive: -23.8%.

`Cc1cccc(-c2cc(-c3ccccc3)nc(SCC(=O)Nc3ccccc3)c2C#N)c1`: the “activity change, negative = cytotoxicity” value is inactive: 4.57%.

As for `Cc1ccc(S(=O)(=O)N(CC(O)Cn2c3ccccc3c3ccccc32)c2cccc(C(=O)NCCO)c2)cc1` (configuration not stated), the “activity change, negative = cytotoxicity” value was inactive: -18.4%.

`CCC(Cn1nnc2ccccc2c1=O)NC(=O)Nc1ccccc1Cl` (configuration not stated): the “activity change, negative = cytotoxicity” value is inactive: -9.39%.

Consider `CCS(=O)(=O)N1CCc2cc(C(=O)NCc3ccc(C)cc3)ccc21`, for which the “activity change, negative = cytotoxicity” value is inactive: -10.1%.

As for `O=C(CSc1nc2c([nH]c3ccccc32)c(=O)n1-c1ccc(F)cc1)Nc1ccc2c(c1)OCCO2`, the “activity change, negative = cytotoxicity” value is inactive: 3.64%.

Regarding `COc1ccc2c(CNCc3cccs3)c(C(=O)O)n(Cc3ccccc3C)c2c1`, the “activity change, negative = cytotoxicity” value is inactive: 2.36%.

In the case of `COc1cc(OC)c(N(C)C(=O)c2cc3c(s2)-c2ccccc2OC3)cc1Cl`, the “activity change, negative = cytotoxicity” value was inactive: 0.624%.

In the case of `O=C(OCC1CCCO1)c1ccc2c(c1)N(Cc1ccc(F)cc1)C(=O)c1ccccc1S2(=O)=O` (configuration not stated), the “activity change, negative = cytotoxicity” value is inactive: 5.54%.

On to `CCC(Sc1nc2ncccc2[nH]1)C(=O)Nc1ccccc1F` (configuration not stated), for which the “activity change, negative = cytotoxicity” value is inactive: -25.9%.

Regarding `Cc1ccc(Cl)cc1NC(=O)N1CCC(CN2CCc3ccccc3C2)CC1`, the “activity change, negative = cytotoxicity” value was inactive: -15.5%.

Take `CCC(=O)NCc1nc2ccccc2n1Cc1ccccc1`: the “activity change, negative = cytotoxicity” value was inactive: 10.6%.

As to `CCNC(=O)CC1C(=O)N(c2ccc(F)cc2)C(=O)N1CCOC` (configuration not stated), the “activity change, negative = cytotoxicity” value is inactive: 6.66%.

Take `COc1ccccc1CNC(=O)c1ccc(Cn2c(SCc3ccccc3)nc3cccnc32)cc1`: the “activity change, negative = cytotoxicity” value is inactive: -17.6%.

`CCOc1ccc(C(=O)N2CCC(c3nnc(-c4ccccc4OC)o3)CC2)cc1`: the “activity change, negative = cytotoxicity” value is inactive: 8.96%.

Turning to `N#Cc1ccccc1CN1C(=O)c2ccccc2Sc2ccc(C(=O)OCc3ccco3)cc21`, the “activity change, negative = cytotoxicity” value is inactive: 5.46%.

In the case of `O=C(CCc1ccccc1)NCc1nc2cccnc2n1Cc1ccc(F)cc1`, the “activity change, negative = cytotoxicity” value is inactive: 16.7%.

Regarding `CCOc1ccc(NC(=O)CCc2c(C)nc3nc(C)nn3c2C)cc1`, the “activity change, negative = cytotoxicity” value was inactive: 13.8%.

As for `CCOC(=O)c1c(C)oc2nc(C)nc(NCCCN3CCN(c4ccccc4)CC3)c12`, the “activity change, negative = cytotoxicity” value is inactive: 0.336%.

Regarding `COC(=O)C(CCSC)NC(=O)C1CCN(c2ncnc3c2nc2n3CCCCC2)CC1` (configuration not stated), the “activity change, negative = cytotoxicity” value is inactive: -2.56%.

Consider `COc1ccc(NC(=O)CN2CCN(Cc3ccccc3)S2(=O)=O)c(OC)c1`, for which the “activity change, negative = cytotoxicity” value is inactive: 5.35%.

Consider `CCOc1ccc(OCC)c(NC(=O)c2cc(S(=O)(=O)N3CCCC3)cn2C)c1`, for which the “activity change, negative = cytotoxicity” value was inactive: -1.66%.

Regarding `COc1ccccc1N1CCN(c2ccc(NC(=O)c3ccc(C)cc3)cc2C(=O)O)CC1`, the “activity change, negative = cytotoxicity” value was inactive: 3.1%.

For `Cc1c(CNC2CCCCC2)c(C(=O)O)c(C)n1Cc1c(F)cccc1Cl`, the “activity change, negative = cytotoxicity” value is inactive: 12.7%.

Regarding `Cc1ccc(NC(=O)CCCn2c(=O)c3cccn3c3ccccc32)c(Cl)c1`, the “activity change, negative = cytotoxicity” value is inactive: -20.9%.

As for `COc1cc(OC)c(NC(=O)c2csc3c2CCC(C)C3)cc1Cl` (configuration not stated), the “activity change, negative = cytotoxicity” value is inactive: -2.71%.

As for `CCOc1ccccc1NC(=O)Cn1c(=O)n(CCC(=O)NCc2ccc3c(c2)OCO3)c(=O)c2ccccc21`, the “activity change, negative = cytotoxicity” value is inactive: -0.897%.

For the molecule `COc1ccccc1CNC(=O)c1cc2cc3ccc(Cl)cc3nc2o1`, the “activity change, negative = cytotoxicity” value was inactive: 0.69%.

For the molecule `COc1ccc(CCNC(=O)CCc2c(C)nc3c(c(C)nn3-c3ccc(C)c(C)c3)c2C)cc1OC`, the “activity change, negative = cytotoxicity” value is inactive: 10.1%.
